Reference: PubChem BioAssay AID1030 (National Center for Advancing Translational Sciences (NCATS), 2008)
About 16,000 (7.3%) of roughly 220,000 compounds were called active. This list was built around the results that the source calls inconclusive (neither active nor inactive); the mix of calls is not that of the screen. Calls follow the shape of the dose curve; as a rule, active = well fitted inhibition curve with a large enough effect (not every such curve was filed as active); inconclusive = small, poorly fitted or top-dose-only effect, or another doubt; inactive = no such curve, though single readings can be large or run the other way. Potencies of inconclusive entries are left out as doubtful fits.

target: Aldehyde dehydrogenase 1A1 (Homo sapiens) (UniProt P00352); assay: qHTS Assay for Inhibitors of Aldehyde Dehydrogenase 1 (ALDH1A1); settings: Purified ALDH1A1, NADH fluorescence, propionaldehyde substrate; series mostly up to 75.3 µM
Potency is read from the fitted curve at half-maximal effect; tags tell the direction and shape of the fitted curve.

Chain of UniProt P00352 (P00352 whole entry, looked up): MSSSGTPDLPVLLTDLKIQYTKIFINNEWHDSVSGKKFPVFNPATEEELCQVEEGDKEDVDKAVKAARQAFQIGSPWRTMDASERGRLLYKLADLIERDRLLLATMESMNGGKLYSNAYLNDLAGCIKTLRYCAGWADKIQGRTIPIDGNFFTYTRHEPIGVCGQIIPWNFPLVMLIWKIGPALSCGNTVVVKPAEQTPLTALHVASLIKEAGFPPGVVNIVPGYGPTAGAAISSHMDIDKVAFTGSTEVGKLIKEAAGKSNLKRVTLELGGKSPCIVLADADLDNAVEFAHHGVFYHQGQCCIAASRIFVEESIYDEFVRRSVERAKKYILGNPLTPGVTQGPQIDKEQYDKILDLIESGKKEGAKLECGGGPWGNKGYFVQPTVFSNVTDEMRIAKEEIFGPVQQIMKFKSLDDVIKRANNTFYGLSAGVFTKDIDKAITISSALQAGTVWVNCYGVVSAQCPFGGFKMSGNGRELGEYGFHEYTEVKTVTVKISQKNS

Compound | Potency
CCOC(=O)/C(=C/c1ccc(F)cc1)NC(C)=O | inactive
[O-][n+]1c(CN2CCCCC2)nc2cccc3c2c1-c1ccccc1-3 | active: 1 µM
O=C(NCCCN1CCCC1=O)c1ccc2c(=O)n(-c3ccccc3F)c(=S)[nH]c2c1 | inconclusive [inhibitor, partial curve]
CC(=O)C1=C(O)C(=O)N(c2ccc(Br)cn2)C1c1ccc(F)cc1 (stereo unspecified) | inconclusive [inhibitor, single point]
COc1ccc(NC(=O)/C(C#N)=C\c2ccc(OCc3ccc(C(=O)O)cc3)c(OC)c2)cc1 | inconclusive [inhibitor, single point]
C=CCn1c(=O)c(C(=O)Nc2ccccc2C(=O)OCC)c(O)c2ccccc21 | inconclusive [inhibitor, single point]
COc1ccccc1NS(=O)(=O)c1cccc(C(=O)N/N=C/c2ccc3c(c2)OCCO3)c1 | inconclusive [inhibitor, single point]
COc1ccc(CNC(=O)c2cccs2)cc1 | inconclusive [inhibitor, single point]
CC(=O)c1ccc(OCCCC(=O)NC2CCCc3ccccc32)cc1 (stereo unspecified) | inactive
CC(O)C(O)C(O)C(O)C1NCCS1 (stereo unspecified) | inactive
N#C/C(=C\c1ccc(N2CCOCC2)o1)c1nc2ccccc2[nH]1 | inconclusive [inhibitor, single point]
Cc1cc(NC(=O)CN2CCN(c3ccc(O)cc3)CC2)no1 | inconclusive [inhibitor, single point]
Cc1nnc(-c2cnn(-c3ccccc3)c2N)n1Cc1ccc(F)cc1 | inactive
N=C(N)c1ccc(/C=C\c2ccc(C(=N)N)cc2)cc1 | inconclusive [inhibitor, partial curve]
Cc1ccc(-c2nnc(N3CC(C)OC(C)C3)c3ccccc23)cc1 (stereo unspecified) | inconclusive [inhibitor, partial curve]
Cn1c(=O)n(Cc2ccccc2F)c(=O)c2c1nc1n2CCN1Cc1ccco1 | active: 7.94 µM
CNC(=S)N1N=C(c2ccc(OC)cc2)CC1c1ccc(N(C)C)cc1 (stereo unspecified) | inactive
CCN(CC)S(=O)(=O)c1ccc(Cl)c(NC(=O)c2ccncc2)c1 | active: 12.6 µM
O=C(COC(=O)/C=C/c1nc2ccccc2s1)Nc1ccccc1Oc1ccccc1 | inconclusive [inhibitor, single point]
COc1ccccc1-c1ccc2ncnc(Nc3ccccc3)c2c1 | inconclusive [inhibitor, single point]
CN(C)c1ccc(-c2cncnc2N(C)Cc2ccco2)cc1 | inconclusive [inhibitor, single point]
c1ccc(Sc2ncnc3c2oc2ccccc23)cc1 | inconclusive [inhibitor, partial curve]
O=C(Cn1cc(C(F)(F)F)cc(Cl)c1=O)Nc1cccc(Cl)c1 | inconclusive [inhibitor, single point]

Compound | Potency
Cc1ccc(CSc2nc3c(c(=O)[nH]2)C(c2ccncc2)C2=C(CCCC2=O)N3)cc1 (stereo unspecified) | inconclusive [inhibitor, partial curve]
Cc1ccc(CNc2oc(-c3cccs3)nc2C#N)cc1 | inconclusive [inhibitor, partial curve]
Fc1ccc2nc(N3CCOCC3)sc2c1 | inactive
Cc1ccc2[nH]c3c(N4CCN(Cc5ccc6c(c5)OCO6)CC4)ncnc3c2c1 | inactive
CCCCC1(C)OC(=O)C(=Cc2c[nH]c3ccccc23)C(=O)O1 (stereo unspecified) | inactive
CC1Oc2ccccc2N(CC(=O)c2ccccc2)C1=O (stereo unspecified) | inconclusive [inhibitor, partial curve]
CSC1=NCCN1S(=O)(=O)c1ccc2ccccc2c1 | inconclusive [inhibitor, single point]
CC(C)c1ccc(/C=C/C(=O)NCc2ccc(S(N)(=O)=O)cc2)cc1 | active: 28.2 µM
COc1ccc2c(c1OC)C(=O)NC(C)=C(C(=O)OC(C)(C)C)C2O (stereo unspecified) | inconclusive [inhibitor, single point]
Cc1ccc2c(c1)C1C=CCC1C(C(=O)O)N2 (stereo unspecified) | inconclusive [inhibitor, single point]
Cc1ncoc1C(=O)N1CCCC(C(=O)c2ccc3c4c(cccc24)CC3)C1 (stereo unspecified) | inconclusive [inhibitor, partial curve]
Cc1nc(S(=O)(=O)c2ccc(Cl)cc2)c(NCc2ccccc2)o1 | inconclusive [inhibitor, single point]
CCOC(=O)N1CCN(C(=O)C(C)N(c2ccc(Oc3ccccc3)cc2)S(C)(=O)=O)CC1 (stereo unspecified) | inactive
CN(C)S(=O)(=O)c1ccc(/C(O)=C2/C(=O)C(=O)N(Cc3cccnc3)C2c2ccco2)cc1 (stereo unspecified) | inconclusive [inhibitor, single point]
O=C(Cn1cnc2cc([N+](=O)[O-])ccc2c1=O)NCCc1ccc(Cl)cc1 | inconclusive [inhibitor, partial curve]
C=CCn1c(SCn2nnc3ccccc3c2=O)nc2scc(-c3cccs3)c2c1=O | inconclusive [inhibitor, partial curve]
CCc1c(C)c2nncn2[nH]c1=O | inconclusive [inhibitor, single point]
COc1ccccc1NC(=O)N1C2CCCC1CC(NC(=O)c1ccccc1)C2 (stereo unspecified) | inactive
O=C(N/N=C/c1cc([N+](=O)[O-])ccc1O)C1CCCCC1 | inactive
COCc1cc(C)nc(SCC(=O)Nc2cc3c(cc2C#N)OCO3)c1C#N | inconclusive [inhibitor, single point]
CCOC(=O)C(CCCOc1cccc(OC)c1)C(=O)OCC | inconclusive [inhibitor, single point]
CCc1nc(NCCN2CCOCC2)c2oc3ccccc3c2n1 | active: 0.891 µM
NS(=O)(=O)c1ccc(NC(=S)NC2CC2)cc1 | inconclusive [inhibitor, single point]
